In the supplement of paper PMC4996465:

Columns and labels:
[1] = test system: Nalm-6; assay: log AC50 of viability decrease (48 h) (log10 M); higher = less potent
Procedure: (§1)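 Eleven-dose screen of the NCATS MIPE 3 library on cells without co-treatment; CellTiter-Glo after 48 h. AC50 from the curve fit; only inhibitory curves of the better fit classes are listed.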

[2] = test system: KB3-1; assay: as above
Procedure: as §1

[3] = test system: Nalm-6; assay: viability (% of DMSO control); higher = more viable cells
Procedure: (§2)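 Eleven-dose screen of the NCATS MIPE 3 library on cells without co-treatment; CellTiter-Glo after 48 h, as % of DMSO wells.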

[4] = test system: KB3-1; assay: as above
Procedure: as §2

| Compound | log AC50 of viability decrease ([1]; run: 1) | log AC50 of viability decrease ([1]; run: 2) | log AC50 of viability decrease [2] | viability ([3]; run: 1, 0.00078 µM) [%] | viability ([3]; run: 1, 0.00234 µM) [%] | viability ([3]; run: 1, 0.00702 µM) [%] | viability ([3]; run: 1, 0.0211 µM) [%] | viability ([3]; run: 1, 0.0632 µM) [%] | viability ([3]; run: 1, 0.19 µM) [%] | viability ([3]; run: 1, 0.569 µM) [%] | viability ([3]; run: 1, 1.71 µM) [%] | viability ([3]; run: 1, 5.12 µM) [%] | viability ([3]; run: 1, 15.4 µM) [%] | viability ([3]; run: 1, 46.1 µM) [%] | viability ([3]; run: 2, 0.00078 µM) [%] | viability ([3]; run: 2, 0.00234 µM) [%] | viability ([3]; run: 2, 0.00702 µM) [%] | viability ([3]; run: 2, 0.0211 µM) [%] | viability ([3]; run: 2, 0.0632 µM) [%] | viability ([3]; run: 2, 0.19 µM) [%] | viability ([3]; run: 2, 0.569 µM) [%] | viability ([3]; run: 2, 1.71 µM) [%] | viability ([3]; run: 2, 5.12 µM) [%] | viability ([3]; run: 2, 15.4 µM) [%] | viability ([3]; run: 2, 46.1 µM) [%] | viability ([4]; 0.00078 µM) [%] | viability ([4]; 0.00234 µM) [%] | viability ([4]; 0.00702 µM) [%] | viability ([4]; 0.0211 µM) [%] | viability ([4]; 0.0632 µM) [%] | viability ([4]; 0.19 µM) [%] | viability ([4]; 0.569 µM) [%] | viability ([4]; 1.71 µM) [%] | viability ([4]; 5.12 µM) [%] | viability ([4]; 15.4 µM) [%] | viability ([4]; 46.1 µM) [%] |
| --- | --- | --- | --- | --- | --- | --- | --- | --- | --- | --- | --- | --- | --- | --- | --- | --- | --- | --- | --- | --- | --- | --- | --- | --- | --- | --- | --- | --- | --- | --- | --- | --- | --- | --- | --- | --- |
| CCCS(=O)(=O)Nc1ccc(F)c(C(=O)c2c[nH]c3ncc(Cl)cc23)c1F [PLX-4720] | -4.78 | -4.68 | -4.78 | 123 | 126 | 124 | 121 | 124 | 118 | 117 | 114 | 105 | 90.8 | 64.5 | 112 | 106 | 111 | 116 | 110 | 111 | 103 | 111 | 110 | 97.5 | 59.2 | 102 | 107 | 108 | 105 | 108 | 102 | 112 | 102 | 101 | 87 | 66.1 |
| O=C(Nc1cc(Cl)cc2c1[nH]c1cnccc12)c1cccnc1 [PS-1145] | -5.48 | – | -4.88 | 102 | 100 | 107 | 115 | 111 | 98.1 | 104 | 70.3 | 44.9 | 6.23 | 8.03 | 112 | 108 | 106 | 107 | 103 | 106 | 108 | 104 | 105 | 108 | 78.7 | 95.2 | 99 | 96 | 106 | 99.2 | 96.6 | 99.3 | 104 | 100 | 39.4 | 11.6 |
| Cc1ccc(Nc2nccc(N(C)c3ccc4c(C)n(C)nc4c3)n2)cc1S(N)(=O)=O [Pazopanib] | -4.68 | – | -4.68 | 104 | 105 | 107 | 112 | 108 | 108 | 93.6 | 95.6 | 83.9 | 79.6 | 14.7 | 101 | 99.2 | 101 | 108 | 109 | 99.8 | 93.1 | 90.5 | 87.8 | 93.8 | 11 | 101 | 102 | 105 | 105 | 100 | 104 | 99.9 | 95.7 | 88.8 | 89 | 57 |
| CCOc1cc2ncc(C#N)c(Nc3ccc(F)c(Cl)c3)c2cc1NC(=O)/C=C/CN(C)C [Pelitinib] | -5.53 | -5.33 | -4.83 | 110 | 112 | 121 | 117 | 116 | 112 | 80.7 | 60.7 | 43.2 | 4.65 | -0.799 | 104 | 108 | 105 | 106 | 112 | 98.8 | 80.3 | 67.5 | 47.2 | 4.8 | 0.00142 | 98.2 | 102 | 100 | 99.1 | 99.3 | 85.6 | 81.8 | 77.9 | 50.4 | 50.2 | 1.76 |
| NC/1=N/C(=O)C2=C([NH]C=C2CCC3=CC=C(C=C3)C(=O)N[C@@H](CCC(O)=O)C(O)=O)N1 [Pemetrexed disodium] | -7.33 | -7.23 | -6.73 | 123 | 118 | 113 | 95.7 | 59.6 | 33.4 | 22.8 | 19.9 | 20.2 | 16.5 | 11.3 | 102 | 109 | 105 | 96 | 50.2 | 20.1 | 14.1 | 9.76 | 8.74 | 6.79 | 3.85 | 111 | 109 | 113 | 108 | 99.1 | 95.6 | 93 | 83.4 | 81.9 | 81.3 | 80 |
| COc1cc([C@@H]2c3cc4c(cc3[C@H](O)[C@H]3COC(=O)[C@H]23)OCO4)cc(OC)c1OC [Picropodophyllin] | -8.43 | -8.43 | -8.08 | 106 | 100 | 10.5 | 14.4 | 13.5 | 13.2 | 14.4 | 10.6 | 12.4 | 13.9 | 16.5 | 112 | 101 | 8.46 | 12.5 | 8.82 | 7.91 | 7.95 | 5.91 | 6.69 | 7.54 | 7.91 | 103 | 105 | 74.5 | 26.8 | 25.2 | 25.8 | 22 | 22 | 19.9 | 17.4 | 17.5 |
| CC(C)(C)c1[nH]cnc1/C=c1\[nH]c(=O)/c(=C/c2ccccc2)[nH]c1=O [Plinabulin] | -8.03 | -8.13 | -7.93 | 112 | 105 | 76.7 | 21.5 | 13.4 | 15.8 | 15.7 | 15.1 | 15.2 | 11.2 | 3 | 113 | 115 | 64.7 | 13.3 | 9.98 | 10.6 | 11.3 | 9.86 | 11.9 | 8.44 | 3.11 | 99.3 | 98.1 | 92.1 | 31.8 | 27.7 | 29.2 | 28.1 | 27.7 | 24 | 24.4 | 30.4 |
| CCCCc1nc2cc(/C=C/C(=O)NO)ccc2n1CCN(CC)CC [Pracinostat] | -6.88 | -6.93 | -6.58 | 117 | 119 | 118 | 115 | 95.9 | 41 | 8.5 | 5.54 | 4.49 | 4.15 | 2 | 114 | 114 | 105 | 100 | 86.2 | 30.2 | 3.96 | 3.53 | 3.32 | 2.57 | 0.814 | 104 | 106 | 105 | 102 | 90.2 | 68 | 39.9 | 28.5 | 16.2 | 13.5 | 12.8 |
| OC[C@H](Cc1ccccc1)Nc1nc(Oc2ccc3c(c2)CCC3)nc2c1ncn2Cc1ccc(-c2ccccc2)cc1 [QS11] | – | -4.98 | -4.88 | 65.5 | 89.4 | 104 | 99.5 | 111 | 107 | 112 | 82.7 | 66.9 | 47.7 | 47.3 | 98.1 | 102 | 98 | 104 | 102 | 101 | 112 | 87.6 | 80 | 52.5 | 32.9 | 90.9 | 95.9 | 99 | 97.7 | 95.3 | 99.6 | 96.1 | 85.2 | 83.9 | 71.2 | 53.8 |
| COc1cc(Nc2ncc(F)c(Nc3ccc4c(n3)NC(=O)C(C)(C)O4)n2)cc(OC)c1OC [R406] | -4.78 | -4.73 | -4.78 | 117 | 130 | 122 | 132 | 113 | 121 | 113 | 94.5 | 82.5 | 72.7 | 15.3 | 102 | 114 | 112 | 109 | 110 | 108 | 103 | 94.6 | 81.9 | 68.9 | 2.44 | 103 | 107 | 109 | 103 | 101 | 106 | 99.1 | 90.7 | 80.1 | 80.4 | 51.7 |
| CNC(=O)c1cc(Oc2ccc(NC(=O)Nc3ccc(Cl)c(C(F)(F)F)c3)c(F)c2)ccn1 [Regorafenib] | -4.68 | -4.68 | -4.58 | 116 | 126 | 124 | 114 | 117 | 114 | 113 | 102 | 95.6 | 80.2 | 1.8 | 107 | 103 | 110 | 101 | 108 | 110 | 106 | 100 | 100 | 78.1 | 2.25 | 104 | 106 | 107 | 104 | 104 | 109 | 109 | 103 | 94.3 | 93 | 9.45 |
| C/C=C1\NC(=O)[C@H]2CSSCC/C=C\[C@H](CC(=O)N[C@H](C(C)C)C(=O)N2)OC(=O)[C@H](C(C)C)NC1=O [Romidepsin] | -8.78 | -8.78 | -8.73 | 114 | 31.7 | 9.08 | 8.57 | 8.88 | 8.86 | 8.67 | 8.86 | 7.85 | 8.16 | 4.1 | 115 | 26.5 | 7.23 | 8.83 | 6.52 | 7.18 | 6.15 | 7.28 | 5.56 | 4.92 | 1.19 | 99.2 | 41.8 | 20.7 | 15.6 | 15.5 | 16.5 | 15 | 15.3 | 12.2 | 12 | 7.6 |
| CN(C)C[C@@H]1CCn2cc(c3ccccc32)C2C(=O)NC(=O)C2c2cn(c3ccccc23)CCO1 (stereo partly specified) [Ruboxistaurin mesilate] | -4.63 | -4.73 | -4.63 | 90.7 | 113 | 98.5 | 94.9 | 100 | 97.6 | 104 | 82.9 | 81.7 | 82.8 | 1.44 | 104 | 111 | 104 | 103 | 103 | 99 | 105 | 98.4 | 91.8 | 63.5 | 1.73 | 95.3 | 98 | 96.7 | 94.7 | 90.6 | 96.3 | 93.4 | 84.6 | 84.2 | 79.1 | 1.73 |
| C1=C/COCc2cc(ccc2OCCN2CCCC2)Nc2nccc(n2)-c2cccc(c2)OCC/1 [SB1518] | -5.58 | -5.43 | -5.58 | 112 | 120 | 123 | 115 | 113 | 107 | 112 | 74.8 | 37.6 | 16.3 | 79 | 103 | 113 | 112 | 106 | 109 | 102 | 106 | 82.2 | 39.3 | 7.61 | 106 | 95.2 | 101 | 104 | 100 | 101 | 95.7 | 95.5 | 64.1 | 42.1 | 21.3 | 107 |

Viability of KB3-1 and Nalm-6 cells after 48 h of drug alone (CellTiter-Glo), 11 doses over about 4.5 log units. % of DMSO wells, lower = more cell loss; AC50 from the fitted curve, lower = more potent. No active / inactive call. Nalm-6 was screened in two runs. AC50 is listed only for well-fitted inhibitory curves. KB3-1 is a HeLa-derived carcinoma line, Nalm-6 a B-cell precursor leukaemia line.
